Structures are written as SMILES. Over roughly 110,000 compounds, “z-score” has its median near -0.1; the highest 2% begin near 2. Some of the results follow.

This experiment addresses Metabotropic glutamate receptor 8 (Rattus norvegicus) (UniProt P70579). Kind of experiment: rat mGluR8 modulators via GIRK flux, primary screen, cell-based, thallium flux, HTS (AID 488969). To be noted: HEK293 rat mGluR8, GIRK (G protein-gated inwardly rectifying potassium channel) thallium flux, FluoZin2; at 10 µM; stronger effect = higher value; submaximal glutamate (EC20) added with thallium.
UniProt P70579, sequence (P70579 whole entry, looked up): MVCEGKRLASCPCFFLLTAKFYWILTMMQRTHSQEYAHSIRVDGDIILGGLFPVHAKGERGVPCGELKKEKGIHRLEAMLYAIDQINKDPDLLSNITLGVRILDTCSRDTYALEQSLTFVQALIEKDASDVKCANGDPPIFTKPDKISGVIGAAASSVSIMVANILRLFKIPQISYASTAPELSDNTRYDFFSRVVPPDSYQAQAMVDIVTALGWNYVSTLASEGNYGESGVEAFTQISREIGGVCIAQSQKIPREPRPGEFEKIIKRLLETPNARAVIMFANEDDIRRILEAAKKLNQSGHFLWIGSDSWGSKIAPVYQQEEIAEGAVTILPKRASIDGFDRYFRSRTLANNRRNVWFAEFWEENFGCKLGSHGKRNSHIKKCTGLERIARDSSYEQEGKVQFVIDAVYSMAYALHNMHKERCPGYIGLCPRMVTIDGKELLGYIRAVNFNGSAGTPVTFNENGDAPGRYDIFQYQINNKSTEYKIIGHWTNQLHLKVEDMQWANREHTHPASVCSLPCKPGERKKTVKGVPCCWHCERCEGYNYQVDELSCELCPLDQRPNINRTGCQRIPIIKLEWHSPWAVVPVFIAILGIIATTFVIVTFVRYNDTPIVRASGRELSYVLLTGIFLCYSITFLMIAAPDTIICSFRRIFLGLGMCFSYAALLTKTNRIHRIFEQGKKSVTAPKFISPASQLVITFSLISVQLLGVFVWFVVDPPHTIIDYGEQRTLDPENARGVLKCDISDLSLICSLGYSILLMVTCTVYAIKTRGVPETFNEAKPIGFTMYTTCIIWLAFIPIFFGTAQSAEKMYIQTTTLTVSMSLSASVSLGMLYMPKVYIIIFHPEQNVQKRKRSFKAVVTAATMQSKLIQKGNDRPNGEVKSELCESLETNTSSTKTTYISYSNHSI
Turning to `CC(C)C(=O)N(c1ccc2oc(=O)sc2c1)S(=O)(=O)c1ccccc1`, the z-score was -0.0559. The compound `COc1ccc(NC(=O)c2c3c(nc4ccccc24)CCC3)cc1` displayed a z-score of -0.169.

Consider `CC(C)(C)Nc1nc(NN)nc(NC(C)(C)C)n1`, for which the z-score was -0.766. For `Cc1ccc(Nc2nc(N)nc(CN3CCCCCC3)n2)c(C)c1` the value was -0.236; for `COc1ccc(S(=O)(=O)N2CCCC2C(=O)Nc2nc3c(s2)CCCC3)cc1` (stereo unspecified), -0.71; for `NC(=O)C1CCN(C(=O)COc2ccc(S(=O)(=O)NCc3ccccc3)cc2Cl)CC1`, -0.343. Then `O=C(Nc1ccccc1N1CCN(C(=O)c2ccc(Cl)cc2)CC1)c1ccc(Br)cc1`, with -0.729; and `Cc1nc2ccccc2c(=O)n1CC(=O)N1CCOCC1`, with 0.167; and `O=C(O)CCC(=O)N1CCN(c2ccc(C(=O)c3ccc(F)cc3)cc2)CC1`, with 0.165. Then `Cn1nnnc1SCC(=O)N1c2ccccc2Sc2ccccc21`, with -0.205; and `O=C(Nc1ccc(Br)cc1F)c1cccnc1`, with 0.587; and `CCOC(=O)NC(NCc1ccccc1Cl)(C(F)(F)F)C(F)(F)F`, with -0.0808. The compound `O=C(O)c1ccc(NC(CSCc2ccc(F)cc2)C(=O)O)c([N+](=O)[O-])c1` (stereo unspecified) showed a z-score of -0.00656. Then `CCCN1C2CCCC1CC(NC(=O)Nc1ccc(C(C)C)cc1)C2` (stereo unspecified), with 0.407; and `O=C(CSc1ccc2nnc(-c3ccccn3)n2n1)N1CCN(c2ccccc2)CC1`, with -1.21; and `Cc1ccc(S(=O)(=O)Nc2ccc3nc(-c4cccn4C)[nH]c3c2)cc1`, with -0.571. Then `COc1cccc(C2c3c(oc4cc(C)c(C)cc4c3=O)C(=O)N2CCCN(C)C)c1` (stereo unspecified), with -0.119; and `O=[N+]([O-])c1cccc(/C([O-])=C(/C(=S)Nc2ccccc2)[n+]2ccccc2)c1`, with -0.121; and `COc1ccc2c(c1)C1(Nc3ccccc3-c3nc4ccccc4n31)C(=O)N2` (stereo unspecified), with -0.00926. In turn, `COC(=O)C1CSc2[nH]c(=O)sc2C1c1ccc(OC)c(OC)c1` (stereo unspecified) displayed a z-score of 0.116.

With `COCCOc1cc(-n2ccnc2SC)c(Cl)cc1Cl`, the z-score is -0.449. `CCCCN1C2=C(C(=O)CCC2)C(c2ccc(Cl)c(Cl)c2)C2=C1c1ccccc1C2=O` (stereo unspecified): the z-score was -0.878. With `COc1cc2c(cc1NC(=S)Nc1ccccc1C)oc1ccccc12`, the z-score is -0.198. `C=CCNCCCCOc1c(Cl)cc(C)cc1Br`: the z-score worked out at 0.796. For `Cc1ccc2c(c1)-c1c(cnn1CC(=O)N(Cc1ccco1)C1CCCCC1)CO2` the value was -0.367.

Compound `O=C(c1cn(-c2ccccc2)nc1-c1cccs1)N(CCO)Cc1ccccc1` returned a z-score of -0.178. For `COc1ccc(S(=O)(=O)Nc2ccccc2C(=O)NC(C)(C)C)cc1OC` the value was -0.0109; for `O=C(NN=C1CCCC1)c1cc(-c2ccccc2)n[nH]1`, -0.217. Then `COc1cc2nc(N(C)C)nc(N)c2cc1OC`, with 0.0114; and `COc1ccc(C2CC(C(F)(F)F)n3nc(C(=O)N(C)Cc4cn(C)nc4C)c(Cl)c3N2)cc1` (stereo unspecified), with -0.155; and `Cc1ccc(C)c(CSc2nnc(-c3cccs3)n2Cc2ccco2)c1`, with -0.588.

The compound `COc1ccc(/C=C(/NC(C)=O)C(=O)O)cc1` returned a z-score of -0.494. The compound `Cc1cc(C)n(C(=O)c2nn(C)c(C)c2[N+](=O)[O-])n1` displayed a z-score of -0.059.

For the compound `COc1cc(OC)cc(C(=O)NCCN2CCOCC2)c1`, the z-score is -0.064. `CCOP(=O)(OCC)C(Nc1cccc(C(F)(F)F)c1)c1ccc(C)cc1` (stereo unspecified) gave a z-score of -0.302. Then `Cc1nn(Cc2ccccc2Cl)c2sc(C(=O)NCc3ccc4c(c3)OCO4)cc12`, with -0.731; and `N#CCC(CNc1ncc(C(F)(F)F)cc1Cl)OC(=O)c1cccc(C(F)(F)F)c1` (stereo unspecified), with -0.197; and `O=C(CSc1nnc(-c2ccncc2)n1C1CCCCC1)Nc1cccc(O)c1`, with -0.0405. For `c1ccc(CNc2cnccn2)cc1` the value was 0.162.

As to `Cc1ccc(Nc2nc(N)nc(CSc3nccn3C)n2)c(C)c1`, the z-score amounted to 0.886.

For `CN1C2C=C3C(C#N)=C(N)C(C#N)(C#N)[C@@H](c4cccc(F)c4)[C@@H]3C1CC2` (stereo partly specified), the z-score came to 1.32.

In turn, `CCOC(=O)NC(=O)CSc1nc(C)cc(C(F)(F)F)c1C#N` yielded a z-score of -0.337. Then `O=C(c1ccc(Cl)c(S(=O)(=O)N2CCCC2)c1)N1CCN(c2ccccn2)CC1`, with 0.515; and `COC(=O)Nc1nn(Cc2ccccc2F)cc1Br`, with -0.155; and `O=C(NCCOC(=O)c1cccs1)c1cccnc1`, with -0.116. Then `CCc1nnc(NC(=O)CSc2nnc3ncccn23)s1`, with -0.0219. As for `COCCNC(=O)c1cc(-c2ccc(OC)c(OC)c2)on1`, the z-score was -0.0363. For `CCOC(=O)Nc1cccc(C(=O)O)c1` the value was -0.247; for `CC1(c2ccc3noc(-c4ccc(F)cc4)c3c2)OCCO1`, 0.16; for `COc1ccc(S(=O)(=O)Cc2ccc(C(=O)N3CCCC3)o2)cc1`, 0.186.

Turning to `CCCCN1C(=O)C2NN=C(C(=O)OCC)C2C1=O` (stereo unspecified), the z-score turned out to be 0.0375. For `O=C(/C=C/c1cc2c(cc1Br)OCO2)NCc1ccc(F)cc1` the value was -0.0959; for `CC(C)c1ccc(Nc2ncccc2C#N)cc1`, -0.199; for `Oc1ccc(-c2cn3c(n2)SCC3)cc1`, -0.465. For `CCCOc1cc(CC(=O)NCc2ccco2)ccc1OC` the value was 0.674.

In turn, `CN(C)c1cc(=O)n2c(n1)SCCC2` registered a z-score of -0.0576. In turn, `O=C1C2C3c4ccccc4C(c4ccccc43)C2C(=O)N1c1cccnc1` (stereo unspecified) showed a z-score of -0.0955.

As for `COc1ccc2c(CC(=O)Nc3c(C)n(C)n(-c4ccccc4)c3=O)coc2c1`, the z-score was -0.241. Then `CCC(=O)Nc1ccc(S(=O)(=O)c2ccc(NC(=O)CC)cc2)cc1`, with 0.658; and `CC(=O)Oc1ccc2ccccc2c1C(NC(=O)Cc1ccccc1)c1ccccc1` (stereo unspecified), with 0.0827; and `COc1ccccc1N1CCN(C(CNS(=O)(=O)c2cccs2)c2cccnc2)CC1` (stereo unspecified), with -0.123.

With `C=CCn1c(C)cc(C(=O)COC(=O)C2CC(=O)N(Cc3ccccc3)C2)c1C` (stereo unspecified), the z-score was -0.908. Consider `Cc1cc(C)n(-c2nc(-c3ccccc3)cs2)n1`, for which the z-score was -0.00661. For `COc1ccc(-c2nnc(SC(C)C(=O)Nc3nccs3)n2Cc2ccccc2)cc1OC` (stereo unspecified) the value was -0.987; for `CN(C(=S)Nc1ccc(Oc2ccccc2)cc1)C1CCCCC1`, 0.0776.

Take `Cc1cc(C)n2nc(C(=O)OCCOc3ccc(F)cc3)nc2n1`: the z-score is -0.232. Then `C=CCn1c(CCNC(=O)c2ccccc2F)nnc1SCc1nc2ccccc2c(=O)[nH]1`, with -0.0364; and `O=C(Nc1ccccc1F)c1ccccc1-c1ccccc1`, with -0.421. `CC1CCCC(NC(=O)CN(C)S(=O)(=O)c2cccc3cccnc23)C1C` (stereo unspecified) came in with a z-score of -0.113. `COc1ccc(S(=O)(=O)Nc2ccc(F)cc2)cc1N(C)S(=O)(=O)c1ccc(Cl)cc1` yielded a z-score of 0.223. `O=C(NNC(=O)c1cc(OCC(F)(F)F)ccc1OCC(F)(F)F)c1ccc(Cl)c(Cl)c1`: the z-score worked out at 0.0582.

Values taken from PubChem BioAssay AID488969 (Vanderbilt High Throughput Screening Facility, 2010).
